{"source": "the supplement of paper PMC4166925", "note": "± gives the standard deviation of the averaged measurements. In all, about 33,000 sequences were measured (“E-score (dimensionless, -0.5 to 0.5)”: median about -0.046, highest 2% from about 0.36 on). The list shows a part of the results.", "data": [{"system": "T1, SpTbr T-box DNA-binding domain (GST fusion)", "T1 sequence": "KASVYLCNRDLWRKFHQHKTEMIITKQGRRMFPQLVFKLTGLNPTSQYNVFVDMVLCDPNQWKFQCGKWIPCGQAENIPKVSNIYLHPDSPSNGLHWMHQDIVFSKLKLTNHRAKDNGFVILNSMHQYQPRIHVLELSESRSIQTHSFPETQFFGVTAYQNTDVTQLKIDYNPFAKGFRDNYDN", "test": "PBM E-score of 8-mer (E-score (dimensionless, -0.5 to 0.5)); Tbr is Tbrain of the sea star Patiria miniata (Pm) or the sea urchin Strongylocentrotus purpuratus (Sp); higher = stronger binding preference; most listed sequences are background and not binding sites", "details": "the construct has about 5 more residues each side", "outline": "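Primer extension turned Universal Agilent oligonucleotide arrays double-stranded. They were incubated with 200 nM protein in PBS (pH 7.5); the protein was a GST-fused Tbr T-box DNA-binding domain expressed in BL21 E. coli at 20 °C and purified on glutathione. Every ungapped 8-mer was scored from the scanned, quantified probe intensities, and the Universal PBM Analysis Suite gave each an enrichment E-score averaged over duplicate arrays.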", "values": [{"sequence": "CCGAGTCC", "PBM E-score of 8-mer": "-0.112 ± 0.0067"}, {"sequence": "AAGATGCA", "PBM E-score of 8-mer": "-0.103 ± 0.022"}, {"sequence": "GGTCGAAC", "PBM E-score of 8-mer": "0.177 ± 0.019"}, {"sequence": "AAGGTCGA", "PBM E-score of 8-mer": "-0.204 ± 0.071"}, {"sequence": "GGTAGTAA", "PBM E-score of 8-mer": "-0.0268 ± 0.044"}, {"sequence": "AGATTGCG", "PBM E-score of 8-mer": "0.064 ± 0.013"}, {"sequence": "GCGCGCTA", "PBM E-score of 8-mer": "0.109 ± 0.053"}, {"sequence": "GTATCTCA", "PBM E-score of 8-mer": "0.106 ± 0.022"}, {"sequence": "CACCGTCA", "PBM E-score of 8-mer": "0.205 ± 0.02"}, {"sequence": "CAGAGCTG", "PBM E-score of 8-mer": "0.0374 ± 0.013"}, {"sequence": "AATCAGAC", "PBM E-score of 8-mer": "-0.165 ± 0.078"}, {"sequence": "CTGGGAAA", "PBM E-score of 8-mer": "0.0158 ± 0.035"}, {"sequence": "AGTCATAA", "PBM E-score of 8-mer": "-0.171 ± 0.052"}, {"sequence": "GGAGAAAA", "PBM E-score of 8-mer": "-0.0534 ± 0.045"}, {"sequence": "AGATGACA", "PBM E-score of 8-mer": "0.261 ± 0.019"}, {"sequence": "TCATCTAA", "PBM E-score of 8-mer": "-0.00051 ± 0.043"}, {"sequence": "TATCCGGA", "PBM E-score of 8-mer": "-0.202 ± 0.0085"}, {"sequence": "CCACAACG", "PBM E-score of 8-mer": "-0.0571 ± 0.034"}, {"sequence": "GCCGTAAA", "PBM E-score of 8-mer": "-0.163 ± 0.027"}, {"sequence": "CAATCGTG", "PBM E-score of 8-mer": "0.138 ± 0.026"}, {"sequence": "CCGGGGCG", "PBM E-score of 8-mer": "-0.104 ± 0.057"}, {"sequence": "CATCCACG", "PBM E-score of 8-mer": "-0.056 ± 0.067"}, {"sequence": "GCCATGCA", "PBM E-score of 8-mer": "-0.127 ± 0.018"}, {"sequence": "ATTCTTTA", "PBM E-score of 8-mer": "0.000875 ± 0.014"}, {"sequence": "GTCTAGTA", "PBM E-score of 8-mer": "-0.223 ± 0.014"}, {"sequence": "ATGGCTGC", "PBM E-score of 8-mer": "-0.0303 ± 0.008"}, {"sequence": "ACGGAACG", "PBM E-score of 8-mer": "-0.139 ± 0.013"}, {"sequence": "ACTAGTTA", "PBM E-score of 8-mer": "-0.0774 ± 0.05"}, {"sequence": "CCTAATAC", "PBM E-score of 8-mer": "-0.0192 ± 0.032"}, {"sequence": "TCAGAAGA", "PBM E-score of 8-mer": "-0.159 ± 0.1"}, {"sequence": "CTTATAAA", "PBM E-score of 8-mer": "-0.0933 ± 0.017"}, {"sequence": "CGCAAACA", "PBM E-score of 8-mer": "0.185 ± 0.005"}, {"sequence": "CAGTGGCC", "PBM E-score of 8-mer": "-0.0537 ± 0.04"}, {"sequence": "CCCCTTGC", "PBM E-score of 8-mer": "-0.154 ± 0.0037"}, {"sequence": "CAAATAGC", "PBM E-score of 8-mer": "-0.0983 ± 0.0097"}, {"sequence": "CTCCTGTA", "PBM E-score of 8-mer": "-0.177 ± 0.056"}, {"sequence": "ACGACCGC", "PBM E-score of 8-mer": "-0.0246 ± 0.0092"}, {"sequence": "CAGGCTGC", "PBM E-score of 8-mer": "-0.0209 ± 0.066"}, {"sequence": "GTATTAAA", "PBM E-score of 8-mer": "-0.208 ± 0.023"}, {"sequence": "CCTAACAA", "PBM E-score of 8-mer": "0.161 ± 0.035"}, {"sequence": "CATCGCTC", "PBM E-score of 8-mer": "-0.0535 ± 0.017"}, {"sequence": "TAACGGTA", "PBM E-score of 8-mer": "0.0285 ± 0.058"}, {"sequence": "TACTTTGA", "PBM E-score of 8-mer": "-0.188 ± 0.03"}, {"sequence": "GGGTCCGA", "PBM E-score of 8-mer": "-0.141 ± 0.015"}, {"sequence": "GGATCGCA", "PBM E-score of 8-mer": "0.208 ± 0.07"}, {"sequence": "CCAGGAGA", "PBM E-score of 8-mer": "-0.317 ± 0.0076"}, {"sequence": "CATGGAGA", "PBM E-score of 8-mer": "-0.191 ± 0.018"}, {"sequence": "CCTGATAA", "PBM E-score of 8-mer": "-0.153 ± 0.1"}, {"sequence": "CCCCTAAA", "PBM E-score of 8-mer": "-0.193 ± 0.027"}, {"sequence": "ATTAGGAG", "PBM E-score of 8-mer": "-0.247 ± 0.041"}, {"sequence": "CCGATAAC", "PBM E-score of 8-mer": "0.2129 ± 0.0014"}, {"sequence": "ACAGTGAT", "PBM E-score of 8-mer": "0.102 ± 0.051"}, {"sequence": "AATGCGGG", "PBM E-score of 8-mer": "-0.168 ± 0.02"}, {"sequence": "ATGGAAGC", "PBM E-score of 8-mer": "-0.211 ± 0.038"}, {"sequence": "CAGACATC", "PBM E-score of 8-mer": "-0.279 ± 0.042"}, {"sequence": "GTTTTGAA", "PBM E-score of 8-mer": "-0.265 ± 0.09"}, {"sequence": "GGCGGTAA", "PBM E-score of 8-mer": "0.0263 ± 0.05"}, {"sequence": "CCAAGTGA", "PBM E-score of 8-mer": "0.117 ± 0.037"}, {"sequence": "ATCGCACC", "PBM E-score of 8-mer": "0.47 ± 0.006"}, {"sequence": "AAGGTTCC", "PBM E-score of 8-mer": "-0.194 ± 0.084"}, {"sequence": "GGCGTACC", "PBM E-score of 8-mer": "-0.167 ± 0.008"}, {"sequence": "CATAGATA", "PBM E-score of 8-mer": "-0.176 ± 0.019"}, {"sequence": "TTCGCGAA", "PBM E-score of 8-mer": "0.3584 ± 0.0003"}, {"sequence": "CGGAAAGC", "PBM E-score of 8-mer": "-0.09084 ± 0.00053"}, {"sequence": "AAACTTAG", "PBM E-score of 8-mer": "-0.0393 ± 0.033"}, {"sequence": "ATCTGCCC", "PBM E-score of 8-mer": "-0.0559 ± 0.069"}, {"sequence": "TCGATACA", "PBM E-score of 8-mer": "-0.156 ± 0.051"}, {"sequence": "CCGGTGAC", "PBM E-score of 8-mer": "0.107 ± 0.014"}, {"sequence": "ACTAGCAC", "PBM E-score of 8-mer": "0.329 ± 0.04"}, {"sequence": "CTCCGATA", "PBM E-score of 8-mer": "-0.0115 ± 0.062"}, {"sequence": "AGTTGTAA", "PBM E-score of 8-mer": "0.111 ± 0.11"}, {"sequence": "ATTTTATA", "PBM E-score of 8-mer": "-0.136 ± 0.01"}, {"sequence": "GCTTCTAC", "PBM E-score of 8-mer": "-0.213 ± 0.018"}, {"sequence": "AGCAATGG", "PBM E-score of 8-mer": "-0.0492 ± 0.0048"}, {"sequence": "GACCAGTC", "PBM E-score of 8-mer": "-0.333 ± 0.075"}, {"sequence": "ATGGTGAG", "PBM E-score of 8-mer": "0.194 ± 0.0033"}, {"sequence": "AGGACAGA", "PBM E-score of 8-mer": "0.0786 ± 0.025"}, {"sequence": "CTTGAATA", "PBM E-score of 8-mer": "-0.249 ± 0.014"}, {"sequence": "CCTCCCAA", "PBM E-score of 8-mer": "-0.243 ± 0.051"}, {"sequence": "ACGCTGCT", "PBM E-score of 8-mer": "0.0165 ± 0.042"}, {"sequence": "GAACTAGA", "PBM E-score of 8-mer": "-0.205 ± 0.0011"}, {"sequence": "GGAGGAGA", "PBM E-score of 8-mer": "-0.0769 ± 0.035"}, {"sequence": "CAAATTGC", "PBM E-score of 8-mer": "-0.0419 ± 0.069"}, {"sequence": "CGTCTCTA", "PBM E-score of 8-mer": "-0.0622 ± 0.021"}, {"sequence": "ATATGCTA", "PBM E-score of 8-mer": "0.0317 ± 0.029"}, {"sequence": "GCAAATAA", "PBM E-score of 8-mer": "0.0696 ± 0.009"}]}]}
